# Reference: PubChem BioAssay AID662 (National Center for Advancing Translational Sciences (NCATS), 2007)
# Screen size: about 71,000 compounds; about 1,800 (2.5%) were called active. Inconclusive results, whose numbers are uncertain, are shown with a selection of clear calls. Calls follow the shape of the dose curve; as a rule, active = well fitted activation curve with a large enough effect in the signal ratio, with a control signal flat (not every such curve was filed as active); inconclusive = small, poorly fitted or top-dose-only effect, or effect the other way, or a change in a side signal; inactive = flat fitted curve, though single readings scatter; the % refers to the signal ratio. A potency beside an inconclusive call is a rough fit, not a confirmed value.
# Experiment: Cell signaling CRE-BLA (Fsk stim); as to activity change, negative = inhibition: % of control where 0% means no effect
# Details: CHO CRE-bla reporter (cAMP response element driving beta-lactamase), forskolin EC10, beta-lactamase ratio; activity change, negative = inhibition: at 38.2 µM (top of the series) unless noted
# Outline: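 qHTS titration format; CRE-bla CHO reporter; stimulus EC10 NKH 477, a water-soluble forskolin. Read: CCF4 460/530 nm ratio. Potency expressed as AC50 for activators or inhibitors.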
# Potency is read from the fitted curve at half-maximal effect; tags tell the direction and shape of the fitted curve.
SMILES,Potency,"activity change, negative = inhibition"
c1cnc(N2CCN(c3nc4ccccc4n4cnnc34)CC2)nc1,active: 2.51 µM,
Cc1ccc(NC(=O)CN(C)S(=O)(=O)c2cccc3nsnc23)cc1,,inconclusive: -14.6%
N#Cc1c(N)c(C(=O)c2ccccc2)n2c1CCCC2,,inconclusive: 30.2%
O=C(c1ccccc1C(F)(F)F)N1CCN(S(=O)(=O)c2ccccc2)CC1,"inconclusive: 3.16 µM [falling, single point]",
CSc1nc2sc3c(c2c(=O)n1C)CCCC3,"inconclusive: 12.6 µM [rising, partial curve]",
CCOC(=O)c1ccc(N2C(=O)c3n[nH]c(C)c3C2c2ccc(OC)c(OC)c2)cc1 (centres undefined),,inconclusive: 25.2%
NC(=O)NC(c1ccccc1)c1ccccc1F (centres undefined),,inconclusive: 5.53% [at 7.6 µM]
CCOc1cc2c(cc1OCC)C(C(=O)O)C(c1ccc(OC)c(O)c1)N(C)C2=O (centres undefined),,inconclusive: -16.8%
CCn1c(=NC(=O)CSC(C)=O)sc2cc(F)ccc21,"inconclusive: 15.8 µM [falling, partial curve, poor fit]",
CCCCCNCCCCC,,inactive
COCC(=O)N1CCC[C@@]2(CCN(C(=O)Nc3cccc(F)c3)C2)C1,,inactive
O=C1c2[nH]nc(-c3ccccc3O)c2C(c2cccc(Cl)c2)N1CC1CCCO1 (centres undefined),"inconclusive: 20 µM [rising, single point]",
O=C(O)c1cccc(S(=O)(=O)Nc2ccccc2Cl)c1,,inconclusive: 10.4%
Cc1onc(-c2ccccc2)c1C(=O)Nc1cccc2nsnc12,"inconclusive: 25.1 µM [rising, single point]",
FC(F)(F)c1nnc2ccc(N3CCOCC3)nn12,,inconclusive: 4.89%
CN1CCN(CC(=O)N(Cc2c(C#N)c3ccccc3n2C)c2ccccc2)CC1,,inconclusive: 3.93%
Cc1cccc(OCCCC(=O)Nc2ccc3c(c2)OCO3)c1,,inconclusive: 17.6% [at 7.6 µM]
Cc1ccc(C)c(-n2c(CNC(=O)c3ccco3)nnc2SCC(=O)Nc2nccs2)c1,"inconclusive: 12.6 µM [rising, partial curve]",
Cc1cc(C)c2nc(SCC(=O)N3CCCCC3)c(C#N)cc2c1,,inactive
CCOC(=O)C1CN(S(=O)(=O)c2ccc(C)cc2)CCN1S(=O)(=O)c1ccc(C)cc1 (centres undefined),,inconclusive: 3.14%
CCOC(=O)CNC(=O)CSc1ncnc2c1cnn2-c1ccc(OC)cc1,,inactive

SMILES,Potency,"activity change, negative = inhibition"
COc1ccc(OC)c2[nH]c(=O)c(CCNS(=O)(=O)c3ccccc3)cc12,,inconclusive: 21.5%
O=C(Cn1c(NCCO)nc2ccccc21)c1cccs1,,inactive
COC(=O)c1ccc(CSc2nc3ccccc3o2)cc1,,inconclusive: 14.1%
O=C(O)CCCCCN1C(=O)C(=O)/C(=C(/O)c2ccccc2)C1c1ccccc1 (centres undefined),,inactive
Cc1cc(-n2c(C)cc(C(=O)CSc3ccc4c(c3)OCCO4)c2C)no1,,inconclusive: -10.7%
CSc1nc2ccc(S(=O)(=O)NC3CCCCC3)cc2s1,,inactive
Cc1oc2cc(OCC(=O)O)ccc2c(=O)c1Oc1ccccc1,,inactive
Cc1oc(-c2cccc(Cl)c2)nc1CN1CCC(C(=O)NCc2ccco2)CC1,,inconclusive: -13.9%
O=c1[nH]c2c(s1)C(c1ccccc1)C1C3CCC(C3)C1S2 (centres undefined),active: 10 µM,
CC(CCc1ccccc1)NC(=O)c1cccnc1 (centres undefined),,inactive
CCOC(=O)N1CCN(C(=O)COc2ccc(Br)cc2)CC1,"inconclusive: 0.631 µM [falling, single point]",
Cc1noc(C)c1CSc1nnc(-c2ccccc2F)n1CCc1ccccc1,"inconclusive: 5.01 µM [falling, single point]",
COc1ccc(-c2noc(-c3ccccc3C(=O)NCc3ccco3)n2)cc1OC,,inactive
c1ccc(Cn2nnnc2C(c2cccs2)N2CCc3ccccc3C2)cc1 (centres undefined),,inactive
CN1CCN(C(=O)c2ccccc2-c2nc(-c3ccc(Cl)cc3)no2)CC1,"inconclusive: 0.00794 µM [falling, full curve, poor fit]",
CN(C)c1ccc(-c2nnn(CC(=O)N3c4ccccc4CCc4ccccc43)n2)cc1,,inactive
O=c1cc(O)c2c(=O)n3c4c(cccc4c2o1)CCC3,,inactive
CSc1nc(-c2ccccc2O)nc(-c2ccccc2O)n1,,inconclusive: 7.05%
CCOC(=O)N1CCC(n2c(SCC(=O)Nc3nccs3)nc3ccsc3c2=O)CC1,,inconclusive: 7.18%
N#Cc1cc2c(nc1SCC(=O)NCc1ccc3c(c1)OCO3)CCCCC2,,inconclusive: -18.6%
Cc1ccc(O)c(-c2cc(C(=O)Nc3ccc(S(=O)(=O)N4CC(C)OC(C)C4)cc3)[nH]n2)c1 (centres undefined),"inconclusive: 6.31 µM [rising, partial curve]",

SMILES,Potency,"activity change, negative = inhibition"
C[C@@H]1C[C@@H]2[C@H]3CCC4=CC(=O)C=C[C@]4(C)[C@]3(F)[C@@H](O)C[C@@]2(C)[C@@]1(O)C(=O)CO,,inconclusive: -20.9%
CCn1c(SCC(=O)Nc2cc(C)ccc2C)nnc1-c1cnccn1,active: 3.16 µM,
CCOc1ccc(OCC)c(NC(=O)CSc2nc3c(c(=O)n(C)c(=O)n3C)n2CC)c1,active: 2 µM,
Cc1ccc(OC(=O)c2ccc(C)c(C)c2)cn1,,inconclusive: 11.7%
CSc1nc(N)nc(SCC(=O)c2ccccc2)c1C#N,active: 3.16 µM,
c1ccc(-c2nnc3sc(CN4CCc5ccccc54)cn23)cc1,"inconclusive: 0.0794 µM [falling, partial curve]",
CCNC(=O)CSc1nc2cc(OC)c(OC)cc2c(=O)n1CCC1=CCCCC1,,inactive
COc1ccc(NC(=O)N2CCC3(CC2)CCN(C(=O)c2cnccn2)CC3)cc1,,inconclusive: -23%
CCOC(=O)C1CCCN(C(=O)c2ccc3c(=O)n(CCOC)c(=S)[nH]c3c2)C1 (centres undefined),"inconclusive: 10 µM [rising, single point]",
O=C(Nc1ccccc1)Nc1ccccn1,,inconclusive: -7.1%
CC(C)(C)C1=Nn2c(nnc2-c2n[nH]c3c2CCC3)SC1,"inconclusive: 10 µM [rising, single point]",
Cc1onc(-c2c(Cl)cccc2Cl)c1C(=O)N[C@H]1C(=O)N2[C@H]1SC(C)(C)[C@H]2C(=O)O,,inactive
O=C(Oc1ccc(OC(=O)c2ccncc2)cc1)c1ccncc1,,inconclusive: 6%
C=CCSC1=C(C#N)C(c2ccccc2Cl)CC(=O)N1 (centres undefined),,inactive
O=C(CN(c1ccc2c(c1)OCCO2)S(=O)(=O)c1ccccc1)Nc1ccc2c(c1)OCO2,,inconclusive: -19.7%
CC(C(=O)Nc1ccc2c(c1)OCO2)N(c1ccc(Cl)cc1)S(C)(=O)=O (centres undefined),,inactive
COc1ccc(-n2c(=O)cnc3cnc(Oc4ccccc4)nc32)cc1,,inactive
COc1ccc(S(=O)(=O)NCCC(=O)NCc2ccc(F)cc2)cc1,,inactive
CCOC(=O)c1ccc2nc(C(F)(F)F)[nH]c(=O)c2c1,,inconclusive: 7.22%
C=C(C)CSc1nc(N)c2c(C)c(C)sc2n1,,inactive
CC(=O)c1ccc(N2C(=NC(=O)C(C)C)SC3CS(=O)(=O)CC32)cc1 (centres undefined),,inconclusive: 9.91%

SMILES,Potency,"activity change, negative = inhibition"
CCOC(=O)C1=C(C)NC(C)=C(C(=O)OCC)C1C(=O)OC1CCOC1=O (centres undefined),,inactive
CCOC(=O)N1CCN(S(=O)(=O)c2ccc3[nH]cc(C(=O)O)c(=O)c3c2)CC1,,inactive
CCn1c(=O)cc(SCC(=O)Nc2ccc3c(c2)OCCO3)c2ccccc21,"inconclusive: 1.58 µM [rising, partial curve]",
COCCN1C(=O)c2oc3c(C)cc(C)cc3c(=O)c2C1c1cccc(O)c1 (centres undefined),"inconclusive: 12.6 µM [rising, partial curve]",
CCc1nnc2n1N=C(c1ccc(-c3cc(Cl)ccc3Cl)o1)CS2,"inconclusive: 7.94 µM [rising, partial curve]",
N#Cc1c2n(c3c(=O)n(Cc4ccccc4)cnc13)CCCC2,,inactive
c1ccc(-n2ncc3c(NCc4cccnc4)ncnc32)cc1,"inconclusive: 10 µM [rising, single point]",
Cc1ccc(C)c(OCCCCCn2ccnc2)c1,,inconclusive: 19.8%
CCOCCCn1c(=NC(C)=O)c(C(=O)OCC)cc2c(=O)n3ccccc3nc21,active: 12.6 µM,
O=C(C1CCC1)N1CCc2cc(S(=O)(=O)NCCN3CCN(c4ccccc4F)CC3)ccc21,,inconclusive: 11.5%
O=C(NCc1ccc(N2CCCC2=O)cc1)c1cn(Cc2ccccc2)nn1,,inconclusive: 18.4%
COC(=O)c1cc(OC)c(OC)c(OC)c1NC(=O)c1ccc(S(=O)(=O)N(C)C)cc1,,inactive
C[C@@H](CSC(=N)N)C(N)=O,,inactive: -0.544% [at 7.6 µM]
Cn1ccnc1Sc1nc(Nc2cccc(Cl)c2)nc(N2CCOCC2)n1,"inconclusive: 3.16 µM [rising, partial curve]",
O=C(CC1Sc2ncnn2C1=O)Nc1ccc(Br)cc1 (centres undefined),,inconclusive: -10.9%
COc1ccc(OC)c(S(=O)(=O)N2CCC(C(=O)Nc3cccc(C(F)(F)F)c3)CC2)c1,,inconclusive: -23%
CCCC(=O)C1=C(O)C(C(=O)OC)C(C)(C)CC1=Nc1ccncc1 (centres undefined),,inactive
CC(=O)[C@@H]1[C@@H]2C(=O)N(c3ccc(F)c(Cl)c3)C(=O)[C@@H]2C2c3ccccc3C=CN21 (some centres undefined),,inconclusive: -3.02%
CCC1Oc2ccc(C)cc2N(CC(=O)NCc2cc(OC)ccc2OC)C1=O (centres undefined),,inactive
c1ccc(-c2nc(N3CCCCCC3)c3ccccc3n2)nc1,"inconclusive: 5.01 µM [rising, partial curve]",
CCCCNC(=O)C(c1ccc(OCC(=O)OC)c(C(=O)OC)c1)N(CCc1ccccn1)C(=O)CCCCCN1C(=O)NC(c2ccc(-c3ccccc3)cc2)C(C(=O)OCc2ccccc2)=C1C (centres undefined),,inconclusive: 8.26%
